The source gives no read counts; variants with many changes may rest on few reads.

The chains are these.
B1: OR4K15 (parent)
chain: GUUAACGGUCAUAGGCCAUGGAAACUAGGAGCACCAUUUCGCUGCCAGUGAAGAAAUGAACAAAGAAAAUCUGGGCCAGGCAGGCAUCAAAAGAAAUAGUCUUGCGCUCAACCAGAAAGUCUGUAAUCAUUUUAAGGGUA

This data set covers variants of B1. The data set can be described thus: self-cleavage, relative activity (ratio to wild type); higher = more cleavage; in vitro, sequencing; the parent is a self-cleaving ribozyme.
GUUAACGGUCAUAGGCCAUGGAAACUAGGAGCACCAUUUCGCCGCCAGUGAGGAAAUGAACAAAGAGAAUCUGGGCCUGGCAGGCAUCAAAAGUAAUAGUCUUGCGCUCAACCAGAAAGUCUGUAAUCAUUUUAAGGGUA [U43C A52G A67G A78U A94U]: the self-cleavage was found to be 0.27.
The figure for GUUAACGGUCAUAGGCCAUGGAAACUAGGAGCACCAUUUCGCCGCCAGUGUAGAAAUGAACAAAGAAAAUCUGGGCCAGGCAGGCAUCAAAAGAAAUAGCCAUGCGCUCAACCAGAAAGUCUGUAAUCAUUUUAAGGGUA [U43C A51U U100C U102A] is 1.82; for GUUAACGGUCAUAGGCCAUGGAAACUAGGAGCACCAUUUCGCCGCCAGUGAAGAAAUGAGCAAAGAAAAUCUGGGUCAGGCAGGCAUCAAAAGAAAUAGUCUUGCGCUCAACCAGAAAGUCUGUAAUCAUUUUAGGGGUA [U43C A60G C76U A135G] it is 0.19.
Take GUUAACGGUCAUAGGCCAUGGAAACUAGGAGCACCAUUUCGCCGCCAGUGAAGAAAUGAACAAAGAUAAUCUGGGCCAGGCAGGCAUUAAAUGAAAUAGUCUCGCGCUCAACCAGAAAGUCUGUAAUCAUUUUAAGGGUA [U43C A67U C88U A92U U103C]: the self-cleavage stood at 1.15.
The figure for GUUAACGGUCAUAGGCCAUGGAAACUAGGAGCACCAUUUCGCCGCCAGUGAAGAAAUGGACAAAGAAAAUCUGGGCCAGGCAGGCAUCGAAAGAAAUAGUCUUGCGCUCAACCAGAAAGUCUGUAAUCAUUUUAAGGGUA [U43C A59G A89G] is 1.85.
The figure for GUUAACGGUCAUAGGCCAUGGAAACUAGGAGCACCAUUUCGCCGCCAGUGAAGAAAUGAACUAAGAAAAUCUGGGCCAGGCAGGCACCAAAAGAAAUAGUCUUGCGCUCAACCAGAAAGUCUGUAAUCAUUCUAAGGGUA [U43C A62U U87C U132C] is 0.63; for GUUAACGGUCAUAGGCCAUGGAAACUAGGAGCACCAUUUCGCCGCCAGUGAAGAAAUGAACGAAGAAAAUCUGGGCCAGGCAGGCAUCAAAAGAAAUAGUCUUGCGCUCAACCAGAAGGUCUGUAAUCAUUUUAAGGGUA [U43C A62G A118G] it is 1.06.
Next, GUUAACGGUCAUAGGCCAUGGAAACUAGGAGCACCAUUUCGCCGCCAGUGAAGAAAUGAACAAAGGAAAUCUGGGCCAGGCAGGCAUCAAAAGAAAUAGUCUUGCGCUCGACCAGAAAGUCUGUAAUCAUUUUAAGGGUA [U43C A66G A110G]: 0.23; GUUAACGGUCAUAGGCCAUGGAAACUAGGAGCACCAUUUCGCCGCCAGUGAAGAAAUGAACAAAGAGAAUCUGGGCCAGGCAGGCAUCGAAGGAAAUAGUCUUGCGCUCAACCAGAAAGUCAGUAAUCAUUUUAAGGGUA [U43C A67G A89G A92G U122A]: 0.31.
For GUUAACGGUCAUAGGCCAUGGAAACUAGGAGCACCAUUUCGCCGCCAGUGAAGAAAUGAACAAAGAUAAUCUGGGCCAGGCAGGCAUCAAAAGAAAUAGUCUUGCGCUCAACCAGGAAGUCUGUAAUCAUUUUAAGGGUA [U43C A67U A116G], the self-cleavage amounted to 0.39.
As for GUUAACGGUCAUAGGCCAUGGAAACUAGGAGCACCAUUUCGCCGCCAGUGAAGAAAUGGUCAGAGAAAAUCUGGGCCAGGCAGGCAUCAAAAGAAAUAGUCUUGCGCUCAACCAGAAAGUCUGUAAUCAUUUUAAGGGUA [U43C A59G A60U A63G], the self-cleavage was 2.29.
The figure for GUUAACGGUCAUAGGCCAUGGAAACUAGGAGCACCAUUUCGCCGCCAGUGAGGAAAUGAACAAAGAAAAUCUGGGCCAGGCAGGCAUCAAAAGAAAUAGUCUUGCGCUCAACUAGAAAGUCUGUGAUCACUUUAAGGGUA [U43C A52G C113U A125G U130C] is 0; for GUUAACGGUCAUAGGCCAUGGAAACUAGGAGCACCAUUUCGCCGCCAGUGAAGAAAUGAACAAGGAAAAUCUGGGCCAGGCAGGCAUCAAAAGGAAUAGCCUUGCGCUCAACCAGAAAGUCUGUAAUCAUUUUAAGGGUA [U43C A64G A94G U100C] it is 1.73; for GUUAACGGUCAUAGGCCAUGGAAACUAGGAGCACCAUUUCGCCGCCAGUGAAGAAAUGAACAAAGAAGAUCUGGGCCAGGCAGGCAUCAAGAGAAAUAGUCUUGCGCUCAACCAGAAAGUCUGUAAUCAUUUUAAGGGUA [U43C A68G A91G] it is 1.49.
For the variant GUUAACGGUCAUAGGCCAUGGAAACUAGGAGCACCAUUUCGCCGCCAGUGAGGAAGUGAACAAAGAAAAUCUGGGCCAGGCAGGCAUCAAAAGAAAUAGUCUUGCGCUCAACCAGAAAGUCUGUAAUCAUUUUAAGGGUA [U43C A52G A56G], the self-cleavage amounted to 0.81.
Next, GUUAACGGUCAUAGGCCAUGGAAACUAGGAGCACCAUUUCGCCGCCAGUGAAGAGAUGAACAAAGAAAAUCUGGGCCAGGCAGGCAUCAAAAGAAAUAGCCUUGCGCCCAACCAGAAGGUCUGUAAUCAUUUUAAGGGUA [U43C A55G U100C U108C A118G]: 0; GUUAACGGUCAUAGGCCAUGGAAACUAGGAGCACCAUUUCGCCGCCAGUGAAGAAAUGAACAAAGAAGAUCUGGGCCAGGCAGGCAUCAAAAGAAAUAGUCUUGCGCUCAGCCAGAAAGUCUGUAUCCACUUUAAGGGUA [U43C A68G A111G A126U U127C U130C]: 0.01; GUUAACGGUCAUAGGCCAUGGAAACUAGGAGCACCAUUUCGCCGCCAGUGAAGAGAUGAACAUAGAAAAUCUGGGCCAGGCAGGCAUCAAAAGAAAUAGUCUUGCGCUCAACCAGAAAGUCUGCAAUCAUUUUAAGGGUA [U43C A55G A63U U124C]: 1.02.
Turning to GUUAACGGUCAUAGGCCAUGGAAACUAGGAGCACCAUUUCGCCGCCAGUGAAGAGAUGAACAAAGAAAAUCUGGGCCAGGCAGGCAUCAAAAGAAAUAGUCUUGCGCUCUACCAGAAAGUCUGUAGUCAUUUUAAGGGUA [U43C A55G A110U A126G], the self-cleavage was 0.86.
For the variant GUUAACGGUCAUAGGCCAUGGAAACUAGGAGCACCAUUUCGCCGCCAGUGAAGAAGUGAACAAAGAAAAUCUGGGCCAGGCAGGCACCAGAGGAAAUAGUCUUGCGCUCAACCAGAAAGUCUGUGAUCAUUUUAAGGGUA [U43C A56G U87C A90G A92G A125G], the self-cleavage was 0.02.
As to GUUAACGGUCAUAGGCCAUGGAAACUAGGAGCACCAUUUCGCCGCCAGUGAAGAAAUGGACAAAGUAAAUCUGGGCCAGGCAGGCACCAAAGGAAAUAGUCUUGCGCUCAACCAGAAAGUCUGUAAUCAUUUUAAGGGUA [U43C A59G A66U U87C A92G], the self-cleavage is 0.89.
Next, GUUAACGGUCAUAGGCCAUGGAAACUAGGAGCACCAUUUCGCCGCCAGUGAAGAAAUGAACGAAGAAAAUCUGGGCCAGGCAGGCAUCAAAAGGAAUAGUCUUGCGCUCAACCAGAAAGUCUGUAAUCAUUUUAAGGGUA [U43C A62G A94G]: 1.8; GUUAACGGUCAUAGGCCAUGGAAACUAGGAGCACCAUUUCGCCGCCAGUGAAGAAAUGAACAAAGAGAAUCUGGGCCAGGCAGGCAUCGAAAGAAAUAGUCUUGCGCUCAACCUGAAAGUCUGUAAUCAUCUUAAGGGUA [U43C A67G A89G A114U U131C]: 0.02.
Next, GUUAACGGUCAUAGGCCAUGGAAACUAGGAGCACCAUUUCGCCGCCAGUGAAGUAAUGAACAAAGAAAAUCUGGGCCAGGCAGGCAUCAAAAGAAAUAGUCUUGCGCUCAACCAGAAAGUCUGCAAUCAUUUUAAGGGUA [U43C A54U U124C]: 0.94; GUUAACGGUCAUAGGCCAUGGAAACUAGGAGCACCAUUUCGCCGCCAGUGAAGAAAUGAACAAUGAAAAUCUGGGCCAGGCAGGCAUCAAAAGAAAUAGUCUUGCGCUUAACCAGAAAGUCUGUAAUCAUUUUAAGGGUA [U43C A64U C109U]: 0.5.
Next, GUUAACGGUCAUAGGCCAUGGAAACUAGGAGCACCAUUUCGCCGCCAGUGAAGAAAUGAACGAAGAAAAUCUGGGCCAGGCAGGCAUCAAAAGAAAUAGUCUUGCGCUCAACCAGAAAGUCUGUAAUAAUUUUAAGGGUA [U43C A62G C128A]: 1.22; GUUAACGGUCAUAGGCCAUGGAAACUAGGAGCACCAUUUCGCCGCCAGUGGAGAAAUGAACAAAGAAAAUCUGGGCCAGGCAGGCAUCAAAAGAAAUAGUCUUGCGCUCAACCAGAAAGUCCGUAAUCAUUUUAAGGGUA [U43C A51G U122C]: 0.6; GUUAACGGUCAUAGGCCAUGGAAACUAGGAGCACCAUUUCGCCGCCAGUGAAGAAGUGAACAAAGAAAAUCUGGGCCAGGCAGGCAUCAAAAGAAAUAGUCUUGCUCUCAACCAGAAAGUCUGUAAUCAUUUUAAGGGUA [U43C A56G G106U]: 0.03.
On to GUUAACGGUCAUAGGCCAUGGAAACUAGGAGCACCAUUUCGCCGCCAGUGAAGAAAUGGACAAAGAUAAUCUGGGCCAGGCAGGCAUCAAAAGAAAUAGUCUUGCGCUCAACCAGAAAGUCUGUAAUCAUUUUAAGGGUA [U43C A59G A67U], for which the self-cleavage turned out to be 2.17.
Next, GUUAACGGUCAUAGGCCAUGGAAACUAGGAGCACCAUUUCGCCGCCAGUGAAGAAAUGAACGAAGAAAAUCUGGGCCAGGCAGGCAUCAAAAGAAAUAGUCUUGCGCUCAACCAGAAAGUCUGUAAUCACUUUAAGGGUA [U43C A62G U130C]: 1.25; GUUAACGGUCAUAGGCCAUGGAAACUAGGAGCACCAUUUCGCCGCCAGUGAAGAAGUGAACAAAGAAAAUCUGGGCCAGGCAGGCAUCAAAAGAAAUAGUCCUGCGCUCAACCAGAAGGUCUGUAAUCAUUUUAAGGGUA [U43C A56G U102C A118G]: 1.28; GUUAACGGUCAUAGGCCAUGGAAACUAGGAGCACCAUUUCGCCGCCAGUGAAGGAAUGAACAAAGAAGAUCUGGGCCAGGCAGGCAUCAAAAGAAAUAGUCUUGCGCUCAACCAGAAAGUCUGUAAUCAUUUUAAGGGUA [U43C A54G A68G]: 0.89.
The figure for GUUAACGGUCAUAGGCCAUGGAAACUAGGAGCACCAUUUCGCCGCCAGUGAAGAAAUGAGCAGAGAAGAUCUGGGCCAGGCAGGCAUCAAAAGAAAUAGUCUUGCGCUCAACCAGAAAGUCUGUAAUCAUUUUAAGGGUA [U43C A60G A63G A68G] is 1.33; for GUUAACGGUCAUAGGCCAUGGAAACUAGGAGCACCAUUUCGCCGCCAGUGGAGAAAAGAACAAAGAAAAUCUGGGCCAGGCAGGCAUCAAAAGAAAUAGUCUUGCGCUCAACCAGAAAGUCCGUAGUCAUUUUAAGGGUA [U43C A51G U57A U122C A126G] it is 1.19.
Turning to GUUAACGGUCAUAGGCCAUGGAAACUAGGAGCACCAUUUCGCCGCCAGUGAAGAAAUGAGCAAGGAAAAUCUGGGCCAGGCAGGCAUCAAAAGAAAUAAUCUUGCGCUCAACCAGAAAGUCUGUAAUCAUUUUAAGGGUA [U43C A60G A64G G99A], the self-cleavage amounted to 0.8.
Consider GUUAACGGUCAUAGGCCAUGGAAACUAGGAGCACCAUUUCGCCGCCAGUGAAGAAAUGAACGAAGAAAAUCUGGGCCAGGCAGGCAUCAAAAGAAAUAGUCUUGCGCUCAACCAGAAAGUCUGUAAUCAUUUUAAGGGCA [U43C A62G U139C], for which the self-cleavage turned out to be 1.6.
Next, GUUAACGGUCAUAGGCCAUGGAAACUAGGAGCACCAUUUCGCCGCCAGUGAAGAAAUGAACAAAGAGAAUCUGGGCCAGGCAGGCAUCAAGGGAAAUAGUCUUGCGCUCAACCAGAAAGUCUGUAAUCAUUUUAAGGGUA [U43C A67G A91G A92G]: 0.08; GUUAACGGUCAUAGGCCAUGGAAACUAGGAGCACCAUUUCGCCGCCAGUGAAGAAGUGAACAAAGAAAAUCUGGGCCGGGCAGGCAUCAAAAGAAAUAGUCUUGCGCUCAACCAGAAAGUCUGUAAUCAUUUUAAGGGUA [U43C A56G A78G]: 0.32.
As for GUUAACGGUCAUAGGCCAUGGAAACUAGGAGCACCAUUUCGCCGCCAGUGAAGAAAUGAACAAAGUAAAUCUGGGCCAGGCAGGCAUCAAAAGAAAUAGUCUUGCGCUCAACCAGAAAGUCUGUAAUCAUUUUAAGGGAA [U43C A66U U139A], the self-cleavage is 2.09.
The figure for GUUAACGGUCAUAGGCCAUGGAAACUAGGAGCACCAUUUCGCCGCCAGUGAAGAAAUGAACAAAGAGAAUCUGGGCCAGGCAGGCAUCAAAAGAAGUAGUCUUGCGCUCAACCAGAAAGUCUGUAAUCAUUUUAAGGGUA [U43C A67G A96G] is 2.19; for GUUAACGGUCAUAGGCCAUGGAAACUAGGAGCACCAUUUCGCCGCCAGUGAAGAAAUGAACAAAGGAAAUCUGGGCCAGGCAGGCAUCAAAAGAAAUAGUCUUGCGCUCAAUCAGAAAGUCUGUAAUCAUUUUAAGGGUA [U43C A66G C112U] it is 0.02.

(Values after the RNAGym collection of RNA variant scans (doi:10.7554/elife.90254).)
